Reference: PMC7819943, “Rice protein-binding microarrays: a tool to detect cis-acting elements near promoter regions in rice”
This is one part of the list.

target: T1, OsWOX13 (Oryza sativa, UniProt Q5QMM3 1-267); experiment: protein-binding microarray (RPBM); PBS, 2% BSA, 51.3 ng/ul salmon testes DNA, 50 uM zinc acetate, 200 nM TF, 25 C, 1 h; high values mean tight binding; conditions: protein: recombinant; tags: N-terminal polyhistidine and DsRed monomer fusion (pET32a); label: CyDye5-dUTP incorporated in the synthesized complementary strand; 3' TTTTT single-stranded linker to array surface; dsDNA, one strand shown
T1 sequence: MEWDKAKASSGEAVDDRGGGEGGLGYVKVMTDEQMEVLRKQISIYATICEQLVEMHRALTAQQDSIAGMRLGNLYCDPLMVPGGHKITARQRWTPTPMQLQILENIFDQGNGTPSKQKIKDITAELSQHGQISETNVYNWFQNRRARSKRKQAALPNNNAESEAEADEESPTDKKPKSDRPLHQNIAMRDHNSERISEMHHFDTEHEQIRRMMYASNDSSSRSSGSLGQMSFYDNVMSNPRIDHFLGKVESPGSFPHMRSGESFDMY
Outline: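 Ni–NTA purification followed expression in E. coli BL21-CodonPlus of transcription factors fused N-terminally to a polyhistidine tag and DsRed. At 200 nM in PBS with 2% BSA, salmon testes DNA and 50 µM zinc acetate, the protein was incubated for 1 h at 25 °C with a custom Agilent array that had been primer-extended with Cy5-dUTP and blocked with 2% BSA. After washing, the array was read on an Axon 4000B scanner. The binding signal is per-feature fluorescence intensity in arbitrary units.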

Sequence	binding signal
AAATAAATAATAGGTGACGTAATCTATTAATAGTGTAGTTCGGAGTCACCTAGTGCAG	8560 fluorescence intensity (a.u.)
TTCAATTTGATTTTGATTTTAGGTGAATCTATAGATATCACGGAGTCACCTAGTGCAG	9990 fluorescence intensity (a.u.)
AAACTGATTTATCTCTTAAATTACTTATCCAAATCATTATCGGAGTCACCTAGTGCAG	13900 fluorescence intensity (a.u.)
TATACTTGATTAAGTGATCATTAATCATCTATACTACATACGGAGTCACCTAGTGCAG	16000 fluorescence intensity (a.u.)
ATATATATATATATATATATATATATATATATAAACCCAACGGAGTCACCTAGTGCAG	24000 fluorescence intensity (a.u.)
TTGAAATTGAAATGATGTGACGGAAAAGTTGGAAGTTTATCGGAGTCACCTAGTGCAG	14100 fluorescence intensity (a.u.)
TCACCAATCACCTGCCCTCACACCAACACGCCACGCGAACCGGAGTCACCTAGTGCAG	16500 fluorescence intensity (a.u.)
AGGGATGACAGAGAAATGTGGATCTGTTATTCTTCATTAGCGGAGTCACCTAGTGCAG	3290 fluorescence intensity (a.u.)
CTATCTCATTGCTTAATTGGTCATATAATTGGGCTGAGTGCGGAGTCACCTAGTGCAG	16900 fluorescence intensity (a.u.)
AGGTAATTGGACACCCACGGGTGACGATCCCCACTGTTCGCGGAGTCACCTAGTGCAG	28400 fluorescence intensity (a.u.)
TCTGATTGTACAGCTCTTATGGGTAAAGGAAAATCTGCAACGGAGTCACCTAGTGCAG	22200 fluorescence intensity (a.u.)
GAGAGGAATTTAAATTGGAAGTGGTTGATGTGATAAGTGGCGGAGTCACCTAGTGCAG	7480 fluorescence intensity (a.u.)
CAGTAAATGGAGTTATTAGCAATCCACAAGGGATAGATGCCGGAGTCACCTAGTGCAG	6630 fluorescence intensity (a.u.)
TATTGATATGATTTAAATTGTCCTTGGTCTTGGTGTATAACGGAGTCACCTAGTGCAG	40700 fluorescence intensity (a.u.)
TACGTTACTTTAATTTTAATTTATTTTGTTAGAACTATTTCGGAGTCACCTAGTGCAG	5520 fluorescence intensity (a.u.)
AGCTACTTTAATTATACTTCTGAAGATTAAAGCAGCATGTCGGAGTCACCTAGTGCAG	5010 fluorescence intensity (a.u.)
ACATCTTAATGATTTTCTCGAATTTAATGCATGACCTTCTCGGAGTCACCTAGTGCAG	5150 fluorescence intensity (a.u.)
TTCAACATTATAAATTACAAATTAGTAGATGACTTGCATGCGGAGTCACCTAGTGCAG	11100 fluorescence intensity (a.u.)
ATTAGATTGGAGATATATCTGAGGGAGTTAAACTGAACTTCGGAGTCACCTAGTGCAG	18000 fluorescence intensity (a.u.)
TGTTACTAATAATCAGTCATCATCAGGGACATCAACCACTCGGAGTCACCTAGTGCAG	7980 fluorescence intensity (a.u.)
CTCTAAATTTGTTCGTCCGTGTCGTCCAGGTCACCAAACTCGGAGTCACCTAGTGCAG	6440 fluorescence intensity (a.u.)

Sequence	binding signal
TGTGATTTTGGTGCCAAAGAAAGATGGTTCATGGAGGATGCGGAGTCACCTAGTGCAG	3380 fluorescence intensity (a.u.)
ACACTTTGACAGACAGTATCACTCGTATACAGACAACTTCCGGAGTCACCTAGTGCAG	8880 fluorescence intensity (a.u.)
TTAATTAATTAGTCCACGGCGTTAATGATACTCCACCGATCGGAGTCACCTAGTGCAG	37300 fluorescence intensity (a.u.)
AATTGACAGAGAGTTATCTAGATTCGTAATATTAGGATATCGGAGTCACCTAGTGCAG	21300 fluorescence intensity (a.u.)
AGGGGATAGATGGAAATCATGACGGGAGTGGCACGGTTCTCGGAGTCACCTAGTGCAG	11900 fluorescence intensity (a.u.)
AATTAATCGTATACTAATCACTTTTCTGTGCGGCTAAGAGCGGAGTCACCTAGTGCAG	9100 fluorescence intensity (a.u.)
TTAATTTGTATTTCTCAATAAACCGTTTAAAATTATTAGACGGAGTCACCTAGTGCAG	6900 fluorescence intensity (a.u.)
AAAATTAGGCTCTGCGTAATTGCCTTTAACCTGTAGTAACCGGAGTCACCTAGTGCAG	6170 fluorescence intensity (a.u.)
CCAAAATCAGCGGCCAATCATTGAGTCAATCAAATTTCACCGGAGTCACCTAGTGCAG	29700 fluorescence intensity (a.u.)
CAGGTAATTGGGAGGGAATACCTTCTTTACTTTATCTAAGCGGAGTCACCTAGTGCAG	26400 fluorescence intensity (a.u.)
ATTTACTAATCTCAATCTTGATCGATCGGATATAACCGAGCGGAGTCACCTAGTGCAG	8440 fluorescence intensity (a.u.)
TACCCACTCAAATTAACTAATTAGTTAATTTTGTTTTGAACGGAGTCACCTAGTGCAG	38800 fluorescence intensity (a.u.)
GTGGATTATTAATTAGCAAAAGATAATCAGAAAACGGAAGCGGAGTCACCTAGTGCAG	30700 fluorescence intensity (a.u.)
GGTAATAGAGAGACCACTAATAAAGATTGTTGTACCTGTGCGGAGTCACCTAGTGCAG	3690 fluorescence intensity (a.u.)
ATAGATTGAAAATATTTTATGTTAGATTTGAAAACTTTTGCGGAGTCACCTAGTGCAG	18300 fluorescence intensity (a.u.)
AATGACTTGACTTTGACAAATGTAGTTGAACAAAGTTGCACGGAGTCACCTAGTGCAG	4780 fluorescence intensity (a.u.)
CAAACAAATAGAATTTGATATGAATGATGCATCAATACACCGGAGTCACCTAGTGCAG	5740 fluorescence intensity (a.u.)
ATGCTGATTAATGTCACCTTTTGGCCTTAATCATATAAGGCGGAGTCACCTAGTGCAG	37900 fluorescence intensity (a.u.)
CCACAAATTAATCCCGCATGCTCTTGGCATTTACCCACCACGGAGTCACCTAGTGCAG	7950 fluorescence intensity (a.u.)
CATTAAATTTAAAATTAAGCTCTTAGATTTAAATCTAGATCGGAGTCACCTAGTGCAG	26600 fluorescence intensity (a.u.)
CCTTGACAAGTTTGTCCTCAATTTGATTTCAAGTCTAAAACGGAGTCACCTAGTGCAG	9490 fluorescence intensity (a.u.)

Sequence	binding signal
GTCAATCAAGTCATCTAATTAGAACCCAAATCACATTAGACGGAGTCACCTAGTGCAG	42000 fluorescence intensity (a.u.)
CACTAAAATAATTAGTGCAATGTCCGTTCACAAATTACGACGGAGTCACCTAGTGCAG	5520 fluorescence intensity (a.u.)
TCATTAGCGTATAATTAATTGAGTATTAACTATTTTAAACCGGAGTCACCTAGTGCAG	9420 fluorescence intensity (a.u.)
GCATGTTTTCATAATCAATCGGTCAATTGTATGGACATATCGGAGTCACCTAGTGCAG	4330 fluorescence intensity (a.u.)
AACAAGACATATTGAGAAGATGATTGGGGAGTTATAGACGCGGAGTCACCTAGTGCAG	14000 fluorescence intensity (a.u.)
CTCTAATTATGGATATGTACGCAACGTATAAGAGCGAGTACGGAGTCACCTAGTGCAG	12900 fluorescence intensity (a.u.)
AACTTTGTTCATTTCTTTTCAATTATTATTTGTGCTCTGACGGAGTCACCTAGTGCAG	3540 fluorescence intensity (a.u.)
CATAAACATTTGATCATCATTAAGGGCATATTCTTTGGTACGGAGTCACCTAGTGCAG	4630 fluorescence intensity (a.u.)
TCTTTGTTGATTACTGCAGTTGAAATTTCGTCGAAGTATACGGAGTCACCTAGTGCAG	20500 fluorescence intensity (a.u.)
TACTTCAATCAAGCTATTTGTTCAAAGCCTCCTTTCTTGACGGAGTCACCTAGTGCAG	13400 fluorescence intensity (a.u.)
TATAATAAATGACCTGAAAATTTTGGGATGAAGGCAGTAGCGGAGTCACCTAGTGCAG	3230 fluorescence intensity (a.u.)
ATTAATTATCATATAACGGTGTTATGTGGAGTGTGATGATCGGAGTCACCTAGTGCAG	34100 fluorescence intensity (a.u.)
CATGAAAATTATTAATGGTGATGGTTATTGTCCGCCGAAGCGGAGTCACCTAGTGCAG	9010 fluorescence intensity (a.u.)
CAGATGTAATTGCTGCATCAATGCGCCCGTGTCGGTGGGTCGGAGTCACCTAGTGCAG	36600 fluorescence intensity (a.u.)
CTCTAATCGAAGGTGATTTGTGCGGCATTGAGTTTGGGATCGGAGTCACCTAGTGCAG	21400 fluorescence intensity (a.u.)
GAACTAATTGATACATTAGCCACTTGATGAGCTCCTCTCCCGGAGTCACCTAGTGCAG	58600 fluorescence intensity (a.u.)
ACTGACTGACTGACTGACTAATAGGGATGAAAGCGGTCAGCGGAGTCACCTAGTGCAG	38000 fluorescence intensity (a.u.)
TAGCTGCTGACAATGATTGACTTTGGAACACGCAGGTAAGCGGAGTCACCTAGTGCAG	23800 fluorescence intensity (a.u.)
GGAATAAATTATATTATCTATCTCTACTCCTCTCTCTTCTCGGAGTCACCTAGTGCAG	11000 fluorescence intensity (a.u.)
GCCTTATAACTGAAAGATCATCATTACCTTCATCAGAGTTCGGAGTCACCTAGTGCAG	3330 fluorescence intensity (a.u.)
TTGTAAAGATTTAATTATTATGAACACAACGGTGTAATCGCGGAGTCACCTAGTGCAG	6840 fluorescence intensity (a.u.)

Sequence	binding signal
ATGATTCGGAATAATTAATTATTTGTCACTCCTATCTATTCGGAGTCACCTAGTGCAG	31000 fluorescence intensity (a.u.)
TTGATTACGGTTTAGTCAGAACATTTGCGAATTGCAATGCCGGAGTCACCTAGTGCAG	10400 fluorescence intensity (a.u.)
GAGCTAATTAATTAGTATTAGAATTTTCAGTCAATTCAGACGGAGTCACCTAGTGCAG	35600 fluorescence intensity (a.u.)
ATTAACTATAAATGATTTGGAGTCAATAGTTGGCTATAATCGGAGTCACCTAGTGCAG	16100 fluorescence intensity (a.u.)
GAACCCTAATTTTGTAGCTATACTATTTGATGCGATGCGACGGAGTCACCTAGTGCAG	3230 fluorescence intensity (a.u.)
GAGTCAAATTGAACCTATTCCCTCAAGCTATGCAGGTTCTCGGAGTCACCTAGTGCAG	4980 fluorescence intensity (a.u.)
TCTGATGATCTCACTGGATTTGGAAACGCCGTGTTCTTGGCGGAGTCACCTAGTGCAG	5050 fluorescence intensity (a.u.)
GCTAATTTCACTTTTAACTAAACCGCATAACAATAATAAGCGGAGTCACCTAGTGCAG	14600 fluorescence intensity (a.u.)
ATTCGTAATTTCTCGTATTTATCTCAACTTTTAACGGTGCCGGAGTCACCTAGTGCAG	9940 fluorescence intensity (a.u.)
CAAATTTAATCATCTAATTATTAATATGTACTTACTTCCGCGGAGTCACCTAGTGCAG	29900 fluorescence intensity (a.u.)
CTTATTGTTTTGATTATGCTTATGTGAATCGCTTATTAACCGGAGTCACCTAGTGCAG	3430 fluorescence intensity (a.u.)
CTGTTGATGAACAGTATCAATCCAAAACACACATGCCAATCGGAGTCACCTAGTGCAG	5580 fluorescence intensity (a.u.)
CAATTTCTGTGCTTTAATTGATTTACTATGCAATGCAGGTCGGAGTCACCTAGTGCAG	20800 fluorescence intensity (a.u.)
AGGAGGAAGAAGGGATAGATTGATATGTGGGCCCCACATGCGGAGTCACCTAGTGCAG	5080 fluorescence intensity (a.u.)
CGTTTAATATTTATAATTAATTTCTAAACATCCAATGTGACGGAGTCACCTAGTGCAG	15400 fluorescence intensity (a.u.)
GTATAGTTATTTGATTTGCTACCAATTTATGCTCTCACTACGGAGTCACCTAGTGCAG	7210 fluorescence intensity (a.u.)
CTTTTCGATTGAATGACTAGGTGTTTTGTGTTAATCTTGTCGGAGTCACCTAGTGCAG	21800 fluorescence intensity (a.u.)
TGCATGCAGTCATCAAAATAGACATACAATTGTTAGGACACGGAGTCACCTAGTGCAG	6330 fluorescence intensity (a.u.)
ACCAGATTACTATTGCTACACAAAATGTCAAATTGTTCCACGGAGTCACCTAGTGCAG	3220 fluorescence intensity (a.u.)
ATTTAATTATTTATTCCAACGCAGAGAAGAATTTTAGAAGCGGAGTCACCTAGTGCAG	31300 fluorescence intensity (a.u.)
ATAATTAATGTATGATGCGCAAATAAAATGGTTATATCATCGGAGTCACCTAGTGCAG	13800 fluorescence intensity (a.u.)
